The list shows a part of the results, in another mix than the full data. For part of these data: The list includes weakly bound sequences.

One assay deals with T1, GST-Nv-NF-kB (Cys allele) (UniProt E5G601).
T1 sequence: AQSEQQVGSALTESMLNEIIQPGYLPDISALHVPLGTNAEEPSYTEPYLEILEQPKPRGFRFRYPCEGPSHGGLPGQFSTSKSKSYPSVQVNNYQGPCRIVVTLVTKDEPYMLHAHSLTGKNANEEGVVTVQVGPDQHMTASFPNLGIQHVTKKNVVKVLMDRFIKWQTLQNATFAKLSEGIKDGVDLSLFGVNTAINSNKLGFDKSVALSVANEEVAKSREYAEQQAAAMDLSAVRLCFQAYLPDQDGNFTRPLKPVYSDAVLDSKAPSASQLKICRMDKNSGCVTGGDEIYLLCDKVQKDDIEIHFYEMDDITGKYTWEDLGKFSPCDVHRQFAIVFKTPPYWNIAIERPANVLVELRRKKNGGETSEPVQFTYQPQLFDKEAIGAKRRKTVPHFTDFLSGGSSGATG
Nature of the assay: protein-binding microarray (PBM). The following applies: PBM: ~300 nM protein, 6 mM HEPES pH 7.8, 80 mM KCl, 0.5 mM EDTA, 0.5 mM EGTA, 6% glycerol, 35 ng/ul poly-dIdC, 1% milk, 1 h, room temperature; high values mean tight binding; double strand, one strand shown.
In turn, “CCGATTAACATCAGGGGATTGCATGATGTTAATCGGGTCTTGATTCGCTTGACGCTGCTG” registered a binding signal of 5.89 z-score. On the same count and under the same terms, next, “CCGATTAACATCAGGATATCCCCTGATGTTAATCGGGTCTTGATTCGCTTGACGCTGCTG”: 7.01 z-score; “CCGATTAACATCACACATTTCCCTGATGTTAATCGGGTCTTGATTCGCTTGACGCTGCTG”: 4.57 z-score.

A further assay deals with T2, GST-Co-NF-kB (UniProt F1ARL5).
T2 sequence: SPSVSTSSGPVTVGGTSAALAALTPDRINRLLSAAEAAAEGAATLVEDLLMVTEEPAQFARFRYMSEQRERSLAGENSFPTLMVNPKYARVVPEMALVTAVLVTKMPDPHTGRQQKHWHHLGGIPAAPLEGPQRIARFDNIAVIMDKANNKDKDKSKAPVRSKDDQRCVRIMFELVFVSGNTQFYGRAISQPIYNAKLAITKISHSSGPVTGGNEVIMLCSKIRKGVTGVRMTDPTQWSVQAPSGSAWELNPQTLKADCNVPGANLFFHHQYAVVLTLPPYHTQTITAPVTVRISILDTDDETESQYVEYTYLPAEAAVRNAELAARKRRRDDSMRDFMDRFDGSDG
Nature of the assay: protein-binding microarray (PBM). The settings on record: PBM: ~300 nM protein, 6 mM HEPES pH 7.8, 80 mM KCl, 0.5 mM EDTA, 0.5 mM EGTA, 6% glycerol, 35 ng/ul poly-dIdC, 1% milk, 1 h, room temperature; Ap Aiptasia and Nv Nematostella (sea anemones) / Co Capsaspora / Aq Amphimedon (sponge) / Dm Drosophila / Hu human; RHD is the Rel homology domain; high values mean tight binding; most listed sequences are background and not binding sites; double strand, one strand shown.
Turning to “CCGATTAACATCAAGGAAAGCCCTGATGTTAATCGGGTCTTGATTCGCTTGACGCTGCTG”, the binding signal is -0.195 z-score. Same read-out and setting: in the case of “CCGATTAACATCACCCAACCCCCTGATGTTAATCGGGTCTTGATTCGCTTGACGCTGCTG” it was 2.21 z-score; in that of “CCGATTAACATCAGATTTCCCCCTGATGTTAATCGGGTCTTGATTCGCTTGACGCTGCTG”, 11 z-score. “CCGATTAACATCACCCCAGCCCCTGATGTTAATCGGGTCTTGATTCGCTTGACGCTGCTG” yielded a binding signal of 2.88 z-score.

In turn, “CCGATTAACATCAATATACCCCCTGATGTTAATCGGGTCTTGATTCGCTTGACGCTGCTG” registered a binding signal of 6.57 z-score. The same measure, in the same setting: in the case of “CCGATTAACATCAAGGAAGTCCCTGATGTTAATCGGGTCTTGATTCGCTTGACGCTGCTG” it was 0.929 z-score. As to “CCGATTAACATCAGGAATTCCTATGATGTTAATCGGGTCTTGATTCGCTTGACGCTGCTG”, the binding signal came out at 0.332 z-score. For the sequence “CCGATTAACATCAGGGCATTCCATGATGTTAATCGGGTCTTGATTCGCTTGACGCTGCTG”, the binding signal was 0.593 z-score.

Turning to “CCGATTAACATCACGGTGTTTCCTGATGTTAATCGGGTCTTGATTCGCTTGACGCTGCTG”, the binding signal is -0.101 z-score.

Consider “CCGATTAACATCAGGAGGTCCCCTGATGTTAATCGGGTCTTGATTCGCTTGACGCTGCTG”, for which the binding signal came to 1.57 z-score.

Sequence “CCGATTAACATCAGGGGATTGCATGATGTTAATCGGGTCTTGATTCGCTTGACGCTGCTG” showed a binding signal of 2.38 z-score. Still for that read-out and setting: in the case of “CCGATTAACATCAGGATATCCCCTGATGTTAATCGGGTCTTGATTCGCTTGACGCTGCTG” it was 3.66 z-score.

The values are drawn from article PMC5700166.
